Results taken from PubChem BioAssay (NCATS).
Inconclusive results, whose numbers are uncertain, are shown with a selection of clear calls. A potency beside an inconclusive call is a rough fit, not a confirmed value. The source made the active and inactive calls. Calls follow the shape of the dose curve; as a rule, active = well fitted cell-killing curve with a large enough effect; inconclusive = small, poorly fitted or top-dose-only effect, or effect the other way; inactive = flat fitted curve, though single readings scatter.

Assay: qHTS for Inhibitors of ATXN expression: Validation of Cytotoxic Assay (AID 588349)
Conditions: cytotoxicity counter-screen for ATXN expression inhibitors, cell viability; series mostly up to 57.1 µM
From the text: Spinocerebellar ataxia type 2 (SCA2) is a multisystem neurodegenerative disease caused by a dominantly-acting mutation leading to expansion of a polyQ domain in the ataxin-2 protein (ATXN2). SCA2 patients develop progressive ataxia and later lose function in other neuronal systems. Prominent parkinsonian signs develop in some patients. Similar to many neurodegenerative disorders, no symptomatic or disease-modifying treatments are known.
The primary objective of project is to identify compounds inhibiting ATXN2 expression and to test them for efficacy in SCA2 mouse models. To this end, in a collaboration between Dr. Daniel Scoles and scientists at NCGC, a cell-based assay adapted to high-throughput screening has been developed to screen the NIH Molecular Libraries Small Molecule Repository (MLSMR). Confirmed qHTS active compounds will be tested for toxicity against the human neuron-like SH-SY5Y cell line. This line is the parental cell type used to generate the transgenic line used in the primary assay, and so should provide an isogenic control to test the inherent toxicity of qHTS actives.
NIH Chemical Genomics Center [NCGC]
NIH Molecular Libraries Probe Centers Network [MLPCN]
Assay Submitter (PI): Stefan Pulst and Daniel Scoles, University of Utah
HEK293 cultured cells will be dosed with titrated compounds and incubated for 72 hr at 37 degrees C. Toxicity will be assessed using the CellTiter Glo kit (Promega), which uses intracellular ATP concentration as a viability marker.
Potency is read from the fitted curve at half-maximal effect; tags tell the direction and shape of the fitted curve.

Question: With `CC(C)N(CCC(=O)c1ccc2ccccc2c1)Cc1ccccc1` as the compound, how does the Potency read?
Answer: The Potency was inconclusive: 35.5 µM [cytotoxic, single point].

Question: Which Potency does the source give for `CN1CCN(CCCN2c3ccccc3Sc3ccc(C(F)(F)F)cc32)CC1` here?
Answer: Its Potency is active: 28.2 µM.

Question: Which Potency does the source give for `COc1ccc2c(c1OC)C(=O)O[C@@H]2[C@H]1c2c(cc3c(c2OC)OCO3)CCN1C` here?
Answer: The Potency was inconclusive: 3.55 µM [cytotoxic, partial curve].

Question: For `CCNC(=O)N1CCN(CCCC(c2ccc(F)cc2)c2ccc(F)cc2)CC1`, which Potency is on record?
Answer: Its Potency is inconclusive: 39.8 µM [cytotoxic, single point].

Question: Which Potency does the source give for `CCCN(CCC)C(=O)C(CCC(=O)O)NC(=O)c1ccccc1` (stereo not drawn) here?
Answer: The Potency was “inactive”.

Question: With `COC(=O)C1=C(C)NC(C)=C(C(=O)OCCN(C)Cc2ccccc2)C1c1cccc([N+](=O)[O-])c1` (stereo not drawn) as the compound, how does the Potency read?
Answer: The Potency was active: 20 µM.

Question: For `COC(=O)C1=CO[C@@H](O)[C@@H]2C(CO)=CC[C@H]12`, which Potency is on record?
Answer: The Potency was “inactive”.

Question: Which Potency does the source give for `CN(C)CC/C=C1\c2ccccc2COc2ccccc21` here?
Answer: Its Potency is “inactive”.

Question: For `CCNC(=O)[C@H]1O[C@@H](n2cnc3c(N)nc(NCCc4ccc(CCC(=O)O)cc4)nc32)[C@H](O)[C@@H]1O`, which Potency is on record?
Answer: The Potency was “inactive”.

Question: For `COc1ccc(CCN(C)CCCC(C#N)(c2cc(OC)c(OC)c(OC)c2)C(C)C)cc1OC` (stereo not drawn), which Potency is on record?
Answer: The Potency was inconclusive: 25.1 µM [cytotoxic, partial curve].

Question: For `O=C(O)CN(CCN(CC(=O)O)CC(=O)O)CCN(CC(=O)O)CC(=O)O`, which Potency is on record?
Answer: The Potency was inconclusive: 39.8 µM [cytotoxic, partial curve, poor fit].

Question: For `C[C@]12CC[C@@H]3c4ccc(O)cc4CC[C@H]3[C@@H]1CC[C@@H]2O`, which Potency is on record?
Answer: Its Potency is inconclusive: 25.1 µM [cytotoxic, partial curve, poor fit].

Question: With `Cc1cn[nH]c1` as the compound, how does the Potency read?
Answer: Its Potency is “inactive”.
